In all, about 48,000 compounds went through this assay and about 550 (1.1%) were called active. Inconclusive results (about 4%) are left out. Rule as the data show it: active = potency below about 15 µM; inconclusive = mostly about 16 µM to 33 µM; inactive = weaker than that. This is one part of the list.
molecular target: Lysosomal acid glucosylceramidase (Homo sapiens) (UniProt P04062); experiment: Glucocerebrosidase; settings: purified enzyme, resorufin glucoside fluorescence (screen aimed at inhibitors), 20 min;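 also: the screen sought inhibitors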
Chain of UniProt P04062 (P04062 whole entry, looked up): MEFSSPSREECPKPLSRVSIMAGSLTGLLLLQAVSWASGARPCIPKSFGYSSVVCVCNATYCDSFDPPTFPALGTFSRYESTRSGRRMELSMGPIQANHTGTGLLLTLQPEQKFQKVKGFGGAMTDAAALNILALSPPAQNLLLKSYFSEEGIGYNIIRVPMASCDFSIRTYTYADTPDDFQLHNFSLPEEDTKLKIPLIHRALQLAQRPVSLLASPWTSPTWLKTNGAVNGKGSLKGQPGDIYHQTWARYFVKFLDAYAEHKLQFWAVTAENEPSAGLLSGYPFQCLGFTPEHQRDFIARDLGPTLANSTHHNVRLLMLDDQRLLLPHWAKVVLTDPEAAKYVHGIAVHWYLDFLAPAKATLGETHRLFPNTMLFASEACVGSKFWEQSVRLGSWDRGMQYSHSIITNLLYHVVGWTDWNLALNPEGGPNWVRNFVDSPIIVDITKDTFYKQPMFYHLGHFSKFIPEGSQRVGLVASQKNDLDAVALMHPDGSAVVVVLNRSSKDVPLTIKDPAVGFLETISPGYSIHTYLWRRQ
Method in brief: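 Wild-type enzyme at 0.2 nM final in 50mM citric acid/KH2PO4, 10mM sodium taurocholate, 0.01% tween-20, pH 5.9, with resorufin beta-D-glucopyranoside at 30 uM final. Compounds titrated, 20 min at RT, red fluorescence read; AC50 from titration.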
Potency is read from the fitted curve at half-maximal effect.

Potency, inactive:
COc1cc2c(cc1NC(=O)C1CCCO1)oc1ccccc12 (stereo not drawn) > 76.9 µM, COCCCNC(=O)c1oc2ccc(S(=O)(=O)N(C)C3CCCCC3)cc2c1C > 76.9 µM, CCCc1cc(C(N)=O)c(NC(=O)c2cc(C)on2)s1 > 76.9 µM, COc1ccc(CNC(=O)c2cccc3c2C(=O)N(Cc2cccnc2)C3)cc1 > 76.9 µM, CCCCC(C(=O)NCCC(C)C)N(CCCN1CCOCC1)C(=O)c1snc(C(N)=O)c1N (stereo not drawn), CCCC(c1nnnn1Cc1ccc(F)cc1)N1CCN(C2CCCCC2)CC1 (stereo not drawn) > 76.9 µM, COc1cccc(-n2nnnc2SCC(=O)c2cc(OC)ccc2OC)c1 > 76.9 µM, Cc1cc(NS(=O)(=O)c2ccc(NC(=O)c3ccco3)cc2)no1 > 76.9 µM, CS(=O)(=O)NCc1csc(-c2ccccc2)n1 > 76.9 µM, CSc1cccc(-n2c(C)cc(C(N)=O)c2C)c1 > 76.9 µM, c1ccc(C(c2nnnn2C2CCCC2)N2CCCCCC2)nc1 (stereo not drawn) > 76.9 µM, O=S(=O)(NCC(c1cccnc1)N1CCN(c2ccccc2)CC1)c1cccs1 (stereo not drawn), COc1ccc(-c2cc(O)cc(O)c2)cc1 > 76.9 µM, Cc1ccc(N(C(=O)CC2NC(=O)NC2=O)C2(C(=O)NC3CCCC3)CCCCC2)cc1 (stereo not drawn) > 76.9 µM, O=C(Cn1[nH]c(=O)c2ccccc2c1=O)Nc1ccc2c(c1)CCC2 > 76.9 µM, CN1CCN(CC(=O)Nc2sc3c(c2C#N)CCC(C(C)(C)C)C3)CC1 (stereo not drawn) > 76.9 µM, CN(C)CCNC(=O)c1coc(=O)c(Br)c1 > 76.9 µM, Cc1ccc(Cn2cccc(NC(=O)c3ccco3)c2=O)cc1 > 76.9 µM, COc1ccc(N2CCN(C(=O)Cc3ccc(-n4c(=O)[nH]c5ccccc5c4=O)cc3)CC2)cc1 > 76.9 µM, Cc1nnc(N(CCC#N)CCC#N)s1 > 76.9 µM, CCN(CC)c1ccc(NC(=O)c2cccc(C)c2OC)c(C)c1 > 76.9 µM, C=CCCC(=O)Nc1ccc(COC(=O)N2CCOCC2)cc1 > 76.9 µM, Cc1ccc(-n2ncc(C#N)c2/N=C/N(C)C)cc1 > 76.9 µM, COc1ccc(CNC(=O)CN(C(=O)CCC(=O)Nc2ccccn2)c2ccccc2OC)cc1 > 76.9 µM, COC(=O)CCCCCNc1ccc(C(=O)OC)cc1N > 76.9 µM, Cc1ccc(NC(=O)Cn2nnc(C(=O)NCc3ccccc3)c2N)cc1C > 76.9 µM, COc1ccc(S(=O)(=O)Nc2c(C)n(C)n(-c3ccccc3)c2=O)cc1 > 76.9 µM, O=S1(=O)C=C(Oc2ccc(F)cc2)c2ccccc21 > 76.9 µM, COc1ccc(CCNC(=O)CN(c2ccccc2OC)S(C)(=O)=O)cc1 > 76.9 µM, O=C1CCCc2c1nc(-c1ccccc1)n2O > 76.9 µM, Cc1cc(C)cc(OCC(=O)N(Cc2cccs2)C2CCS(=O)(=O)C2)c1 (stereo not drawn) > 76.9 µM, COc1ccc(-n2c(C)cc(=O)c3c2CC(C)(C)CC3=O)cc1 > 76.9 µM, CCCCOC(=O)n1c(SCC(=O)N(CC)CC)nc2ccccc21 > 76.9 µM, CCOC(=O)CNC(=O)Nc1nnc(-c2ccc(OCC)cc2)o1 > 76.9 µM, CCOC(=O)NC(=O)CN1C(=O)NC(C)(c2ccccc2)C1=O (stereo not drawn) > 76.9 µM, O=C(Nc1ccc(OC(F)(F)F)cc1)C1CCCN(S(=O)(=O)c2cccnc2)C1 (stereo not drawn) > 76.9 µM, COc1ccc(Cn2c(=O)[nH]c3cc(C(=O)NCc4ccc5c(c4)OCO5)ccc3c2=O)cc1 > 76.9 µM, COc1ccc(OC)c(-c2csc(N(Cc3ccco3)C(=O)c3cccs3)n2)c1 > 76.9 µM, COc1cccc(-n2c(C)nnc2SCC(=O)Nc2ccccc2N2CCOCC2)c1 > 76.9 µM, O=C(c1ccc(CS(=O)(=O)Cc2ccc(Cl)cc2)o1)N1CCCC1 > 76.9 µM, O=C(c1ccc(N2CN(C(=O)c3ccco3)c3nc4ccccc4nc32)cc1)N1CCOCC1 > 76.9 µM, O=C1NC(c2ccncc2)Nc2ccccc21 (stereo not drawn) > 76.9 µM, COc1ccc(-c2cc(C(F)(F)F)n3nc(C(=O)Nc4cc(C)on4)cc3n2)cc1OC > 76.9 µM, CCc1nnc2sc(-c3ccc(NC(=O)CSc4ccc(Cl)cc4)cc3)nn12 > 76.9 µM, Cc1nc2ccccc2c(=O)n1NCc1cccs1 > 76.9 µM, Cc1cc(/C(=N/O)C(C)(C)NO)ccc1Cl > 76.9 µM, Cc1ccc(CNC(=O)CCS(=O)(=O)c2cc(Br)cc3c2N(C(=O)C2CC2)CC3)o1 > 76.9 µM, O=C(CN1C(=O)c2ccccc2S1(=O)=O)NCc1cccnc1 > 76.9 µM, c1cncc(-c2nc(-c3ccc4c(c3)OCO4)cs2)c1 > 76.9 µM, O=C(CSc1n[nH]c(-c2cccs2)n1)N1CCN(S(=O)(=O)c2ccccc2)CC1, CC1(CC(=O)O)SC(=O)NC1=O (stereo not drawn) > 76.9 µM, CC1Cc2ccccc2N1S(=O)(=O)c1cccc(C(=O)c2nccn2C)c1 (stereo not drawn) > 76.9 µM, CCc1nc(-c2cc3ccc(C)cc3[nH]c2=O)no1 > 76.9 µM, Cc1sc2nc3ccc(N4CCCCC4)nn3c(=O)c2c1C > 76.9 µM, O=C(COC(=O)c1ccc(S(=O)(=O)N2CCOCC2)cc1)NC1CCCC1 > 76.9 µM, Cc1nc2ccc(S(=O)(=O)NCC(=O)NCCN3CCCCC3C)cc2s1 (stereo not drawn) > 76.9 µM, O=C(Nc1cc(=O)c2ccccc2o1)N1CCCCC1 > 76.9 µM, C=C(C)Cn1c(NCCOC)nc2c1c(=O)[nH]c(=O)n2C > 76.9 µM

— PubChem BioAssay AID360 (National Center for Advancing Translational Sciences (NCATS), 2006)
